Data: PubChem BioAssay AID924 (National Center for Advancing Translational Sciences (NCATS), 2007)
The campaign covered roughly 130,000 compounds. About 1,200 (0.92%) were called active. Inconclusive means that the source gave no clear call. Such entries were picked first, then a sample of the others. Calls follow the shape of the dose curve; as a rule, active = well fitted cell-killing curve with a large enough effect; inconclusive = small, poorly fitted or top-dose-only effect; inactive = no such curve, though single readings can be large or run the other way. A potency beside an inconclusive call is a rough fit, not a confirmed value.

Assay: qHTS Screen for Compounds that Selectively Target Cancer Cells with p53 Mutations: Cytotoxicity of p53ts Cells at the Permissive Temperature; also: nearly all actives have a fitted effect of over 55% in size;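 as to activity change, negative = cytotoxicity: 0% = DMSO and -100% = full killing by reference compound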
Settings: H1299-p53A138V at 32C, ATP luminescence viability, 24 h; activity change, negative = cytotoxicity: at 46.1 µM (top of the series)
Method in brief: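 Cells: H1299 p53ts (A138V), 600/well, pre-incubated 16–30 h at 37C. Cpd up to 46 uM, 24 h, 32C. Readout: ATPlite luminescence, 20 min RT. Normalization: DMSO vs tamoxifen 100 uM. AC50 by Hill equation.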
Potency is read from the fitted curve at half-maximal effect; tags tell the direction and shape of the fitted curve.

| Compound | Potency | activity change, negative = cytotoxicity |
| --- | --- | --- |
| O=C(CN1CCOCC1)Nc1ccc(-c2nc3ccccc3[nH]2)cc1 | inconclusive: 15.8 µM [cytotoxic, partial curve] | – |
| CCOC(=O)Cc1csc(NC(=O)Nc2ccccc2)n1 | inconclusive: 10 µM [cytotoxic, partial curve, poor fit] | – |
| O=C(C1CCN(S(=O)(=O)c2cccc3cccnc23)CC1)N1CCN(C2CCCC2)CC1 | – | inactive: -4.52% |
| Oc1ccc(CNc2ccccc2)c2cccnc12 | inconclusive: 31.6 µM [cytotoxic, single point] | – |
| CC(=O)Nc1ccc(C(=O)Nc2ccc3c(c2)N(C2CCCC2)C(=O)c2ccccc2S3)cc1 | inconclusive: 2.51 µM [cytotoxic, full curve, poor fit] | – |
| COc1ccc(C(=O)Nc2ccc(OC)c(OC)c2)cc1 | inconclusive: 12.6 µM [cytotoxic, single point] | – |
| Cc1nnc(N2CCC(C(=O)NC(C)C)CC2)c2nn(-c3ccccc3)c(C)c12 | – | inactive: 3.68% |
| c1ccc(N2CCN(c3nc4cc5c(cc4s3)OCCO5)CC2)cc1 | – | inactive: -22.8% |
| CCCc1nn2cc(-c3ccc(C)c(C)c3)nc2s1 | active: 7.94 µM | – |
| COc1ccc(/C=C/C(=O)Nc2ccc3nc4c(c(Nc5ccc(OC)c(OC)c5)c3c2)CCCC4)cc1 | active: 11.2 µM | – |
| O=C(CSc1nc2nccnc2c(=O)n1CCc1c[nH]c2ccccc12)Nc1ccc(F)cc1 | – | inactive: 2.27% |
| COC(=O)c1c(NC(=O)C2COc3ccccc3O2)sc2c1CCN(Cc1ccccc1)C2 (centres undefined) | inconclusive: 0.0089 µM [cytotoxic, full curve, poor fit] | – |
| COc1ccc(S(=O)(=O)Nc2ccc(O)c3ccccc23)cc1 | inconclusive: 20 µM [cytotoxic, single point] | – |
| CCNC(=O)N1CCNC(=O)C1CC(=O)Nc1ccc(C(=O)OCC)cc1 (centres undefined) | inconclusive: 10 µM [cytotoxic, partial curve] | – |
| O=C(NCC(c1cccnc1)N1CCc2ccccc21)c1ccc(F)cc1 (centres undefined) | inconclusive: 31.6 µM [cytotoxic, single point] | – |
| Cc1ccsc1CN(C(=O)COc1cccc(C)c1C)C1CCS(=O)(=O)C1 (centres undefined) | – | inactive: -6.03% |
| CCCCOC(=O)c1cccc(NC(=O)/C=C/c2ccccc2Cl)c1 | inconclusive: 7.08 µM [cytotoxic, full curve, poor fit] | – |
| C=C1C(=O)OC2CC1C(OC(C)=O)CC(C)=CCCC(C)=CCC[C@@]2(C)O (some centres undefined) | inconclusive: 25.1 µM [cytotoxic, single point] | – |
| CCNc1nc(N)nc(Oc2ccc(C(=O)OC)cc2)n1 | inconclusive: 12.6 µM [cytotoxic, single point] | – |
| CC(C)c1ccc(NC(=O)c2ccc3c(O)c(S(=O)(=O)c4ccccc4)c(=O)[nH]c3c2)cc1 | active: 12.6 µM | – |
| O=C(CCS(=O)(=O)c1cc2c3c(c1)CCN3C(=O)CC2)Nc1cccc(Br)c1 | – | inactive: -6% |
| CCCS(=O)(=O)c1nnnn1-c1cccc(OC)c1 | inconclusive: 31.6 µM [cytotoxic, single point] | – |

| Compound | Potency | activity change, negative = cytotoxicity |
| --- | --- | --- |
| Cc1ccc(-c2cc(C(=O)Oc3ccc(C#N)cc3)no2)cc1C | inconclusive: 31.6 µM [cytotoxic, single point] | – |
| O=[N+]([O-])c1cccc(/C=N\Nc2ccc3ccccc3n2)c1O | active: 2.51 µM | – |
| Cc1ccccc1CCNC(=O)c1ccc2c(c1)nc1n2CCCCC1 | active: 1.58 µM | – |
| O=C(c1ccncc1)N1CCN(C(=O)c2cccc3ccccc23)CC1 | – | inactive: -4.69% |
| Cc1cccc(-c2nc(CN3CCCC(C(=O)NCCc4ccc(Cl)cc4)C3)c(C)o2)c1 (centres undefined) | inconclusive: 31.6 µM [cytotoxic, single point] | – |
| Cc1ccc(C(c2c(O)cc(C)n(Cc3ccco3)c2=O)N2CCC(C)CC2)cc1 (centres undefined) | – | inactive: 9.57% |
| C=CCOC(=O)c1sc(NC(=O)c2ccco2)nc1C | active: 10 µM | – |
| Cc1ccc(SCC(=O)Nc2ccc3oc(-c4cccc(Cl)c4)nc3c2)cc1 | – | inactive: -9.64% |
| COc1cccc(-c2cc(C(=O)Nc3cc(C)n(Cc4ccc(Cl)cc4)n3)no2)c1 | inconclusive: 31.6 µM [cytotoxic, single point] | – |
| CC[C@@H]1Cc2cc(O)ccc2C2=C1c1ccc(O)cc1C[C@H]2CC | inconclusive: 15.8 µM [cytotoxic, single point] | – |
| COc1ccc(-c2cc3ccc(OCc4nn[nH]n4)cc3oc2=O)cc1 | active: 10 µM | – |
| CC(NC(=O)c1ccc2c(c1)sc1nc(-c3ccccc3)cn12)C12CC3CC(CC(C3)C1)C2 (centres undefined) | – | inactive: -6.07% |
| COCC(C)Nc1ncnc2c1cnn2-c1ccc(C)c(C)c1 (centres undefined) | inconclusive: 14.1 µM [cytotoxic, partial curve] | – |
| O=C(CNC(=O)c1cccs1)c1ccc(F)cc1 | inconclusive: 12.6 µM [cytotoxic, partial curve] | – |
| O=c1oc2ccccc2cc1-c1nc2ccccc2o1 | inconclusive: 31.6 µM [cytotoxic, single point] | – |
| COC(=O)c1[nH]c2ccccc2c1NC(=O)CN1CCN(c2cccc(OC)c2)C(C)C1 (centres undefined) | inconclusive: 10 µM [cytotoxic, partial curve] | – |
| CCOC(=O)c1ccc(N2C(=O)c3n[nH]c(-c4ccco4)c3C2c2cccc(O)c2)cc1 (centres undefined) | inconclusive: 31.6 µM [cytotoxic, single point] | – |
| Cc1cccn2c(=O)cc(CSc3nnc(NC(=O)c4ccc(F)cc4)s3)nc12 | – | inactive: -2.49% |
| O=C(NCCc1ccccc1)c1ccc(Cn2c(SCc3ccccc3)nc3cccnc32)cc1 | inconclusive: 11.2 µM [cytotoxic, partial curve] | – |
| Cc1ccc(-c2nc3ncccn3c2Nc2ccc3c(c2)OCO3)o1 | inconclusive: 5.01 µM [cytotoxic, partial curve, poor fit] | – |
| Cc1ccccc1C(=O)N1c2ncnn2C2(CCCCC2)[C@@H]2CCCC[C@@H]21 | inconclusive: 35.5 µM [cytotoxic, single point] | – |
| CCc1ccc(NC(=O)Cn2cc(S(=O)(=O)c3ccc(F)cc3)c(=O)c3cc(OC)ccc32)cc1 | inconclusive: 12.6 µM [cytotoxic, single point] | – |
